Experimental data published in the supplement of paper PMC10126150.
Sequences with one replicate were seen in a single cluster, so their values are uncertain.

test system: ATP; experiment: switch fluorescence ratio, 500 uM ATP over buffer (Cy3 cluster intensity, sum of 5 cycles each) (fold (ratio)); higher = stronger signal-on switching upon ATP binding; sequences stand for … in TCGTCGGCAGCGTCAGATGTGTATAAGAGACAGTTTTTTTTTTTTTTTTTTTTTTTTT…TC; settings: aptamer strand: ATP DNA aptamer (quencher-CACCTGGGGGAGTATTGCGGAGGAAGG + anchor), 100 nM annealed; ATP concentration: 500 uM; one replicate
How it was run: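 Clusters with intensities outside 100-1000 RFU were excluded. The remaining Cy3-labelled switching-strand clusters on a modified Illumina MiSeq flow-cell had been annealed to 100 nM quencher-labelled ATP aptamer and imaged in selection buffer, then after 15 min with 500 uM ATP at 22 °C, for five cycles separated by NaOH stripping and re-annealing. The fluorescence ratio, averaged per switch-domain sequence, is each cluster's summed target-cycle Cy3 intensity over its summed buffer-cycle Cy3 intensity.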
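Also: ATP exposure 15 min at 22 °C before imaging.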

Sequence	switch fluorescence ratio
TGGTATCTAT	1.05
TGGTATTGTT	1
TGGTATTTCA	0.992
TGGTCAATTA	1.03
TGGTCAGTCA	0.973
TGGTCCCCTG	0.99
TGGTCCCGC	1.11
TGGTCGCCCG	0.954
TGGTCTACAG	0.999
TGGTCTAGCA	0.962
TGGTCTGAAC	0.975
TGGTGATTGA	0.988
TGGTGCGTGA	1.01
TGGTGCTCAG	0.995
TGGTGCTGCG	0.869
TGGTGGACTT	0.995
TGGTGGAGGC	1.06
TGGTGGCAGT	1.01
TGGTGTAAGC	1.03
TGGTGTACG	1.01
TGGTGTGAGA	1.02
TGGTGTGAT	1.03
TGGTTACGAG	1
TGGTTAGTG	0.985
TGGTTCAGCG	0.944
TGGTTGCAT	1.1

Sequence	switch fluorescence ratio
TGGTTGCCTA	1.02
TGGTTGCGCG	0.993
TGGTTGGTTT	1.01
TGGTTTAC	1.1
TGGTTTACT	1.06
TGGTTTATCA	0.972
TGGTTTATCC	1.04
TGGTTTCGCC	0.968
TGGTTTCTGG	1
TGGTTTTATG	1.06
TGTAAACCGA	0.969
TGTAAAGATC	0.976
TGTAAATCGT	1.01
TGTAACAACT	0.964
TGTAACCTCA	1.05
TGTAAGATCT	0.965
TGTAATAAAA	0.978
TGTAATGTGG	0.959
TGTACGCAGG	1.11
TGTACTACTG	0.99
TGTAGAAGGT	1.06
TGTAGACATC	0.982
TGTAGCCAAA	1
TGTAGCTCG	1.08
TGTAGCTTCG	0.995
TGTAGGCACT	1.02

Sequence	switch fluorescence ratio
TGTAGTCGCT	1
TGTAGTTAC	3.99
TGTATCATAG	1.03
TGTATTATCC	0.995
TGTATTATGA	1.05
TGTATTGGGT	1.11
TGTATTTGTA	0.995
TGTCAACTGA	1.05
TGTCACCTTA	0.991
TGTCACTGCT	1.03
TGTCAGGGTG	1.09
TGTCATTTA	1.03
TGTCCAGAAG	0.99
TGTCCATGAG	1.01
TGTCCGATGC	1.72
TGTCGACCGG	0.952
TGTCGGGGC	1.05
TGTCGGTGCG	0.959
TGTCTCCGAC	1.01
TGTCTGACTG	0.92
TGTCTGAGGT	0.971
TGTCTGCAAA	1.07
TGTCTTATTG	0.971
TGTCTTCCCG	1.19
TGTCTTCCTT	1.05
TGTGAAAG	0.982

Sequence	switch fluorescence ratio
TGTGAAGACT	1
TGTGACAGGT	1.02
TGTGACTGCT	0.978
TGTGAGAAGC	0.993
TGTGAGGATA	0.995
TGTGAGTGTC	1.05
TGTGATAGCT	0.965
TGTGATGGGG	0.973
TGTGCAGGTG	3.16
TGTGCATGCA	0.946
TGTGCATGGC	0.998
TGTGCCAGGT	1.08
TGTGCCGTTA	1
TGTGCCTCGA	0.983
TGTGCGGGGC	1.26
TGTGCTCAGG	1.09
TGTGCTGCGT	0.996
TGTGCTTCAT	1.09
TGTGCTTCG	1.01
TGTGGAGTGT	0.976
TGTGGATGAC	1.02
TGTGGCCCGA	0.97
TGTGGCCGCA	0.991
TGTGGCGATA	0.994
TGTGGCTTGG	0.978
TGTGGGCTTG	0.979

Sequence	switch fluorescence ratio
TGTGGGGCCT	0.981
TGTGGGGCTC	0.987
TGTGGGTAA	0.983
TGTGGGTCCA	1.01
TGTGGTCCCT	0.972
TGTGTCCGTT	1.01
TGTGTGGACA	0.957
TGTGTGGGAA	1.03
TGTGTTAAGC	1.01
TGTGTTTTA	1.02
TGTTAACAC	1.06
TGTTAAGGGT	1.02
TGTTAATGCC	1.1
TGTTACAGGG	0.958
TGTTACCCCA	1.13
TGTTACGTAT	1.03
TGTTAGAGCT	0.945
TGTTAGCCCT	1
TGTTAGTTAG	1.02
TGTTATAC	1.1
TGTTATCGTA	1.03
TGTTATGGTT	1.01
TGTTATGTC	1
TGTTATTGTC	1.03
TGTTATTTTC	0.975
TGTTCAGGCA	1.02

Sequence	switch fluorescence ratio
TGTTCCAGGT	1.09
TGTTCCCGTT	1.02
TGTTCCGGAA	1.09
TGTTCGTGAT	1.6
TGTTCTCCAA	1.01
TGTTCTGGG	0.979
TGTTGACGTT	1.06
TGTTGCAGA	0.977
TGTTGCCTCG	0.962
TGTTGCGCGC	1.04
TGTTGCTACT	0.999
TGTTGTCAGT	0.95
TGTTTATATT	1.02
TGTTTCAGTA	0.964
TGTTTCATTA	0.956
TGTTTTAACG	0.992
TGTTTTACGT	1.03
TGTTTTCATA	1.02
TGTTTTCCA	0.939
TTAAAAACTT	1.07
TTAAAAAGT	1.01
TTAAAACAA	1.02
TTAAAACACA	1.28
TTAAATATCC	0.999
TTAAATCAGG	1.01
TTAAATCATG	0.952

Sequence	switch fluorescence ratio
TTAAATGCA	0.976
TTAAATGCT	1.01
TTAAATTACA	0.969
TTAACAACCG	1.02
TTAACCCGC	1.13
TTAACCTGGT	1.06
TTAACGAGAG	1.04
TTAACTATAG	1
TTAACTTGGC	1.19
TTAAGAAATC	1.06
TTAAGAAGGG	1
TTAAGACAT	1.02
TTAAGACCCA	1.04
TTAAGAGTAT	1.02
TTAAGCAGTG	1.04
TTAAGCGACA	0.999
TTAAGCGTGT	0.965
TTAAGGAAGG	0.996
TTAAGGTGGT	1.01
TTAAGTTATG	1.01
TTAAGTTTGA	1.04
TTAATACCCT	1.08
TTAATATATT	0.98
TTAATATGC	0.919
TTAATCAACC	1.35
TTAATCCCCT	1.03

Sequence	switch fluorescence ratio
TTAATCCGCC	1.99
TTAATTCAGC	0.983
TTAATTCTGT	0.962
TTAATTGGCT	0.947
TTAATTGTAG	0.989
TTACAAACT	1.14
TTACAGAGGA	1.06
TTACCCCATA	1.06
TTACGATCAT	1.05
TTACGCATTA	1.82
TTACGTACCC	1.43
TTACGTACGG	1.62
TTACGTAGTG	0.951
TTACGTGGTC	0.988
TTACGTTGGC	1.05
TTACTAACGG	1.58
TTACTAAGCA	1.08
TTACTAGGTT	0.983
TTACTCCGTT	2.04
